Reference: the supplement of paper PMC11246515

Experiment: total protein half-life in vivo (active degradation + dilution); higher = more stable protein
[1] = E. coli NCM3722 delta-clpP delta-lon delta-hslV, growth: N-lim chemostat, doubling time 6 h
[2] = E. coli NCM3722 delta-clpP, growth: N-lim chemostat, doubling time 6 h
[3] = E. coli NCM3722 delta-hslV, growth: N-lim chemostat, doubling time 6 h
[4] = E. coli NCM3722 delta-lon, growth: N-lim chemostat, doubling time 6 h
[5] = E. coli NCM3722 delta-smpB, growth: N-lim chemostat, doubling time 6 h
[6] = wild type E. coli NCM3722, growth: C-lim chemostat, doubling time 3 h
[7] = wild type E. coli NCM3722, growth: C-lim chemostat, doubling time 6 h
[8] = wild type E. coli NCM3722, growth: C-lim chemostat, doubling time 12 h
[9] = wild type E. coli NCM3722, growth: N-lim chemostat, doubling time 6 h
[10] = wild type E. coli NCM3722, growth: N-lim chemostat, doubling time 12 h
[11] = wild type E. coli NCM3722, growth: P-lim chemostat, doubling time 6 h
[12] = wild type E. coli NCM3722, growth: P-lim chemostat, doubling time 12 h

Row | Sequence | total protein half-life in vivo [1] [h] | total protein half-life in vivo [2] [h] | total protein half-life in vivo [3] [h] | total protein half-life in vivo [4] [h] | total protein half-life in vivo [5] [h] | total protein half-life in vivo [6] [h] | total protein half-life in vivo [7] [h] | total protein half-life in vivo [8] [h] | total protein half-life in vivo [9] [h] | total protein half-life in vivo [10] [h] | total protein half-life in vivo [11] [h] | total protein half-life in vivo [12] [h]
1 | MAVTNVAELNALVERVKKAQREYASFTQEQVDKIFRAAALAAADARIPLAKMAVAESGMGIVEDKVIKNHFASEYIYNAYKDEKTCGVLSEDDTFGTITIAEPIGIICGIVPTTNPTSTAIFKSLISLKTRNAIIFSPHPRAKDATNKAADIVLQAAIAAGAPKDLIGWIDQPSVELSNALMHHPDINLILATGGPGMVKAAYSSGKPAIGVGAGNTPVVIDETADIKRAVASVLMSKTFDNGVICASEQSVVVVDSVYDAVRERFATHGGYLLQGKELKAVQDVILKNGALNAAIVGQPAYKIAELAGFSVPENTKILIGEVTVVDESEPFAHEKLSPTLAMYRAKDFEDAVEKAEKLVAMGGIGHTSCLYTDQDNQPARVSYFGQKMKTARILINTPASQGGIGDLYNFKLAPSLTLGCGSWGGNSISENVGPKHLINKKTVAKRAENMLWHKLPKSIYFRRGSLPIALDEVITDGHKRALIVTDRFLFNNGYADQITSVLKAAGVETEVFFEVEADPTLSIVRKGAELANSFKPDVIIALGGGSPMDAAKIMWVMYEHPETHFEELALRFMDIRKRIYKFPKMGVKAKMIAVTTTSGTGSEVTPFAVVTDDATGQKYPLADYALTPDMAIVDANLVMDMPKSLCAFGGLDAVTHAMEAYVSVLASEFSDGQALQALKLLKEYLPASYHEGSKNPVARERVHSAATIAGIAFANAFLGVCHSMAHKLGSQFHIPHGLANALLICNVIRYNANDNPTKQTAFSQYDRPQARRRYAEIADHLGLSAPGDRTAAKIEKLLAWLETLKAELGIPKSIREAGVQEADFLANVDKLSEDAFDDQCTGANPRYPLISELKQILLDTYYGRDYVEGETAAKKEAAPAKAEKKAKKSA [P0A9Q7] | 6.83 ± 0.95 | 6.56 ± 0.49 | 4.441 ± 0.029 | 4.35 ± 0.058 | 4.4 ± 0.076 | 2.86 ± 0.041 | 5.17 ± 0.29 | 9.32 ± 0.61 | 4.284 ± 0.013 | 6.99 ± 0.12 | 4.3 ± 0.15 | 8.13 ± 0.7
2 | MAGAKEIRSKIASVQNTQKITKAMEMVAASKMRKSQDRMAASRPYAETMRKVIGHLAHGNLEYKHPYLEDRDVKRVGYLVVSTDRGLCGGLNINLFKKLLAEMKTWTDKGVQCDLAMIGSKGVSFFNSVGGNVVAQVTGMGDNPSLSELIGPVKVMLQAYDEGRLDKLYIVSNKFINTMSQVPTISQLLPLPASDDDDLKHKSWDYLYEPDPKALLDTLLRRYVESQVYQGVVENLASEQAARMVAMKAATDNGGSLIKELQLVYNKARQASITQELTEIVSGAAAV [P0ABA6] | 5.94 ± 0.68 | 5.84 ± 0.6 | 4.97 ± 0.71 | 5.848 ± 0.015 | 5.44 ± 0.29 | 3.01 ± 0.1 | 6.44 ± 0.32 | 12.45 ± 0.032 | 5.597 ± 0.055 | 10.1 ± 0.32 | 5.78 ± 0.32 | 14 ± 0.81
3 | MKLPIYLDYSATTPVDPRVAEKMMQFMTMDGTFGNPASRSHRFGWQAEEAVDIARNQIADLVGADPREIVFTSGATESDNLAIKGAANFYQKKGKHIITSKTEHKAVLDTCRQLEREGFEVTYLAPQRNGIIDLKELEAAMRDDTILVSIMHVNNEIGVVQDIAAIGEMCRARGIIYHVDATQSVGKLPIDLSQLKVDLMSFSGHKIYGPKGIGALYVRRKPRVRIEAQMHGGGHERGMRSGTLPVHQIVGMGEAYRIAKEEMATEMERLRGLRNRLWNGIKDIEEVYLNGDLEHGAPNILNVSFNYVEGESLIMALKDLAVSSGSACTSASLEPSYVLRALGLNDELAHSSIRFSLGRFTTEEEIDYTIELVRKSIGRLRDLSPLWEMYKQGVDLNSIEWAHH [P0A6B7] | 3.67 ± 0.65 | 2.88 ± 0.19 | 1.54 ± 0.033 | 2.45 ± 0.23 | 1.74 ± 0.034 | 2.23 ± 0.071 | 2.78 ± 0.22 | 3.83 ± 0.34 | 1.71 ± 0.12 | 2.23 ± 0.24 | 2.58 ± 0.12 | 4.64 ± 0.52
4 | MAMTYHLDVVSAEQQMFSGLVEKIQVTGSEGELGIYPGHAPLLTAIKPGMIRIVKQHGHEEFIYLSGGILEVQPGNVTVLADTAIRGQDLDEARAMEAKRKAEEHISSSHGDVDYAQASAELAKAIAQLRVIELTKKAM [P0A6E6] | 6.51 ± 0.31 |  | 6.58 | 5.87 ± 0.14 |  | 3.26 ± 0.11 | 6.35 ± 0.12 | 11.2 ± 0.58 | 5.65 ± 0.88 | 11.8 | 5.73 ± 0.28 | 14.3
5 | MNLNATILGQAIAFVLFVLFCMKYVWPPLMAAIEKRQKEIADGLASAERAHKDLDLAKASATDQLKKAKAEAQVIIEQANKRRSQILDEAKAEAEQERTKIVAQAQAEIEAERKRAREELRKQVAILAVAGAEKIIERSVDEAANSDIVDKLVAEL [P0ABA0] | 6.24 ± 0.12 | 5.79 ± 0.46 | 6.27 ± 0.64 | 5.65 ± 0.39 | 5.74 ± 0.37 | 3.166 ± 0.014 | 6.38 ± 0.38 | 12.4 ± 0.82 | 5.98 ± 0.4 | 13.6 ± 1.9 | 5.58 ± 0.5 | 13.3 ± 0.97
6 | MAYSEKVIDHYENPRNVGSFDNNDENVGSGMVGAPACGDVMKLQIKVNDEGIIEDARFKTYGCGSAIASSSLVTEWVKGKSLDEAQAIKNTDIAEELELPPVKIHCSILAEDAIKAAIADYKSKREAK [P0ACD4] | 3.32 ± 0.41 | 1.56 ± 0.094 | 1.3 ± 0.2 | 1.88 ± 0.23 | 1.18 ± 0.15 | 1.9 ± 0.07 | 1.93 ± 0.1 | 2.3 ± 0.32 | 1.31 ± 0.12 | 1.58 ± 0.021 | 2.09 ± 0.13 | 3.62 ± 0.89
7 | MSEFITVARPYAKAAFDFAVEHQSVERWQDMLAFAAEVTKNEQMAELLSGALAPETLAESFIAVCGEQLDENGQNLIRVMAENGRLNALPDVLEQFIHLRAVSEATAEVDVISAAALSEQQLAKISAAMEKRLSRKVKLNCKIDKSVMAGVIIRAGDMVIDGSVRGRLERLADVLQS [P0ABA4] | 6.67 ± 0.17 | 6.73 ± 1.6 | 5.48 ± 0.18 | 5.7 ± 0.4 | 5.425 ± 0.021 | 3.13 ± 0.098 | 6.19 ± 0.15 | 12.5 ± 0.23 | 5.65 ± 0.2 | 10.7 ± 1.3 | 5.81 ± 0.1 | 12.68 ± 0.059

± gives the standard deviation of the averaged measurements.
